# These are yes or no findings as the source states them, for the method shown. Binding seen in cells or lysates may run through a third protein. Some entries that bind do so weakly or less than the wild type.
# Protein sequences, listed by entry. Tags and fused reporters are not part of them. Residues count along the entry.
# UniProt P35222: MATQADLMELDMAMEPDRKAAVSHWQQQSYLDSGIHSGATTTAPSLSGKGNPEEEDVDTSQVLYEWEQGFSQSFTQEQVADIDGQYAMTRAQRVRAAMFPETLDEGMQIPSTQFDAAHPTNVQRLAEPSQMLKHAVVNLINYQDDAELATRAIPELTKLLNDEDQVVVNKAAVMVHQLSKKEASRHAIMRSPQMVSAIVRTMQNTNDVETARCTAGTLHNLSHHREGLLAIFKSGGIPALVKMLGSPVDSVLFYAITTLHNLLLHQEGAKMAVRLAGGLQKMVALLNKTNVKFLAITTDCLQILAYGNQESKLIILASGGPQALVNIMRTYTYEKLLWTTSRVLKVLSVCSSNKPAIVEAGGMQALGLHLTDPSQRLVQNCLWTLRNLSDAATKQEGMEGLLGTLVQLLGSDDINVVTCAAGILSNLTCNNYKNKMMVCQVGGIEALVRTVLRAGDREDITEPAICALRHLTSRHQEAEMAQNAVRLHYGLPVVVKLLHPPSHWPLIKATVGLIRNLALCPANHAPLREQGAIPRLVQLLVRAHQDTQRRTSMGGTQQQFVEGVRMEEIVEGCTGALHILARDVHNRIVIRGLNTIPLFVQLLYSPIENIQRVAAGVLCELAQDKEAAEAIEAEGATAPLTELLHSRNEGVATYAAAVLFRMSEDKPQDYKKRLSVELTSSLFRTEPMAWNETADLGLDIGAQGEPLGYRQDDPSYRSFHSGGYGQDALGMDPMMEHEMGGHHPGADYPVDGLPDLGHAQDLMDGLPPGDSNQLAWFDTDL
# UniProt P11021, residues 19-654: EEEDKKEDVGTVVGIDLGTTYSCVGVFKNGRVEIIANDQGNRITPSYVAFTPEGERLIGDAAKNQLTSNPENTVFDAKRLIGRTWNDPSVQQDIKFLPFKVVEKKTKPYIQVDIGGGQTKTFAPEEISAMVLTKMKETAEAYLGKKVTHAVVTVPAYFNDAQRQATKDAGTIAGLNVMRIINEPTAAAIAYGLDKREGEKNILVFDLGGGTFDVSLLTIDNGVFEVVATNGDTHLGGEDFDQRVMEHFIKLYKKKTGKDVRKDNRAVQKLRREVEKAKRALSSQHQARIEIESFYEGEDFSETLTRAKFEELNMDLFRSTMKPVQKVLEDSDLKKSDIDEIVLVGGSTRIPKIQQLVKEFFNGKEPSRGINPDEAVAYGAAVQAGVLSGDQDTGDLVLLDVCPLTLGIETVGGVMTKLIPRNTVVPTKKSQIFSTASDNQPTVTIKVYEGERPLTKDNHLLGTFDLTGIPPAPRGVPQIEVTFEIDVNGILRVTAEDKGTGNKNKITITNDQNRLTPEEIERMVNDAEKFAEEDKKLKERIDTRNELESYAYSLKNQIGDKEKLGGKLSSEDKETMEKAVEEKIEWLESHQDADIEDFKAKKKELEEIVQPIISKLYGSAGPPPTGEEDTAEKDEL
# truncated N1-APC (aa 1-448) (P25054, residues 1-448): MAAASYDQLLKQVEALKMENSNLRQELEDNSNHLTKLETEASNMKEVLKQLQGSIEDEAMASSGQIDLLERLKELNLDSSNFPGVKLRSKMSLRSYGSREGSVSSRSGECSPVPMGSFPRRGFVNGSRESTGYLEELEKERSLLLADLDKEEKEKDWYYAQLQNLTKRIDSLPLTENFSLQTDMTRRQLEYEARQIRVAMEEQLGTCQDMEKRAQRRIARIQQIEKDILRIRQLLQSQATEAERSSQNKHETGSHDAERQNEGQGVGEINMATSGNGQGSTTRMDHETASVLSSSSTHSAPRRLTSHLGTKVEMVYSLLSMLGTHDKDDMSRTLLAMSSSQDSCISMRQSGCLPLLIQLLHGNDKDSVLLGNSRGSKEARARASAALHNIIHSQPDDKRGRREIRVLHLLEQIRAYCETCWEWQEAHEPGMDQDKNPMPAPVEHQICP
# truncated N2-APC (aa 449-781) (P25054, residues 449-781): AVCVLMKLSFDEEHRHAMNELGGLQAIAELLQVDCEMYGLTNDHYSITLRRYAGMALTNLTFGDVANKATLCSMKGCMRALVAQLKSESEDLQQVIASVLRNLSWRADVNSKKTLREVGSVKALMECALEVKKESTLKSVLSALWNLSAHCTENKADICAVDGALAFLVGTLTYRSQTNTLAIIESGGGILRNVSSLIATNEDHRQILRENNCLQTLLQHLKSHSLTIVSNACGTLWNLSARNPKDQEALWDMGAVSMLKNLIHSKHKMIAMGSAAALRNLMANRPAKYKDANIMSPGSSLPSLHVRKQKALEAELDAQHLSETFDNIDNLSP
# truncated N3-APC (782-1082) (P25054, residues 782-1082): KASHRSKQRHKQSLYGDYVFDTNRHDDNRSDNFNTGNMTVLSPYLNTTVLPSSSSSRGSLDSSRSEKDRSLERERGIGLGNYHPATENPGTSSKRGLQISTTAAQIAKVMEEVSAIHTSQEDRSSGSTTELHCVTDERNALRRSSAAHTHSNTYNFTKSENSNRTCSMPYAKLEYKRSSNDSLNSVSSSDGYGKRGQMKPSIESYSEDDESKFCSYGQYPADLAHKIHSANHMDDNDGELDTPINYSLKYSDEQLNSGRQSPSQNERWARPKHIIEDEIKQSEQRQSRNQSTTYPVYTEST
# Legend:
# [1] = target: β-catenin, endogenous (human (endogenous in HT-29 and DLD1)) (UniProt P35222); assay: co-IP; endogenous proteins in whole cell lysates of HT-29, DLD1 or SW480 cells; 2 μg immunoprecipitation antibody overnight at 4 °C, Protein A/G PLUS-Agarose 2 h; cells in high glucose or glucose deprivation (Gd) with or without glutamine, or stably expressing GFP-GRP78
# [2] = target: purified recombinant GST-GRP78 protein (human) (UniProt P11021); assay: pull-down; GST-GRP78 immobilized on Sepharose 4B-glutathione beads, incubated with pre-cleared whole cell lysates (HT-29, DLD1, or MDCK cells stably expressing APC truncations) at 4 °C for 12 h; immunoblot with anti-APC or anti-GFP antibody; only the target purified
# [3] = target: Glucose regulated protein 78 (GRP78), endogenous (human (endogenous in HT-29, DLD1 and SW480)) (UniProt P11021); assay: co-IP; endogenous proteins in whole cell lysates of HT-29, DLD1 or SW480 cells; 2 μg immunoprecipitation antibody overnight at 4 °C, Protein A/G PLUS-Agarose 2 h; cells in high glucose or glucose deprivation (Gd) with or without glutamine, or stably expressing GFP-GRP78
Substance,binding [2],further results
"Glucose regulated protein 78 (GRP78), endogenous (from UniProt P11021 19-654)",–,binding [1]: binds
truncated N2-APC (aa 449-781) (from UniProt P25054 449-781) (domain or fragment),no binding,–
"β-catenin, endogenous (from UniProt P35222 1-781)",–,binding [3]: binds

# Second part, led by results:
binding [2],Substance,further results
binds,truncated N1-APC (aa 1-448) (from UniProt P25054 1-448) (domain or fragment),–
no binding,truncated N3-APC (782-1082) (from UniProt P25054 782-1082) (domain or fragment),–
